Some of the results follow. The main result of the screen is listed elsewhere. These columns were measured beside it and carry no call.
Molecular target: GTPase KRas (Homo sapiens) (UniProt P01116)
Assay: Cysteine mutants labelled by reactive fragments (mass read-out) (AID 2202238)
Parameters: protein at 5 µM with 500 µM competing thiol for 1.5 h
Conditions: KRAS G12D cysteine mutants, disulfide tethering, MALDI-TOF labeling, stronger effect = higher value, fragment at 500 µM
[1] = measured here: G60C mutant labeling
[2] = measured here: G75C mutant labeling
[3] = measured here: H94C mutant labeling
[4] = measured here: I36C mutant labeling
[5] = measured here: L120C mutant labeling
[6] = measured here: M67C mutant labeling
[7] = measured here: M72C mutant labeling
[8] = measured here: N26C mutant labeling
[9] = measured here: N86C mutant labeling
[10] = measured here: P121C mutant labeling
[11] = measured here: S122C mutant labeling
[12] = measured here: S136C mutant labeling

UniProt P01116, sequence (P01116 whole entry, looked up, the tested form may be a part): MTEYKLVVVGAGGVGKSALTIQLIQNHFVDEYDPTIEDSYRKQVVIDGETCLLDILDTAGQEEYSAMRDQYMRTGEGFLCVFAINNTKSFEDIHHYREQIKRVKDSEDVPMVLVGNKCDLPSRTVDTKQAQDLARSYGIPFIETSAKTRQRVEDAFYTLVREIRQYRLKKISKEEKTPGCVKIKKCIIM

SMILES | percent labeling [1] [%] | percent labeling [2] [%] | percent labeling [3] [%] | percent labeling [4] [%] | percent labeling [5] [%] | percent labeling [6] [%] | percent labeling [7] [%] | percent labeling [8] [%] | percent labeling [9] [%] | percent labeling [10] [%] | percent labeling [11] [%] | percent labeling [12] [%]
Cc1c(C(=O)NCCS)nnn1-c1cccc2c1CCN(C)C2 | 60.3 | 36.4 | 43.9 | 39.1 | 43.5 | 43 | 75.6 | 54.3 | 32.8 | 36.6 | 25.9 | 52.9
O=C(CCS)Nc1c(F)cccc1-n1cccn1 |  | 14.8 | 37.7 | 41.4 | 30.5 | 35.2 | 33.1 |  | 30.4 | 36.8 | 40.7 | 51
CC1(C)CCCN1C1CCN(C(=O)CCS)CC1 |  | 15.4 | 33.4 | 43 | 29.4 | 44.1 | 15 |  | 22.1 | 29.8 | 27 | 54.8
Cc1oc(-c2cccs2)nc1C(=O)NCCS | 24.4 | 19 | 15.8 | 8.2 | 16.2 | 8.2 | 32 | 26.8 | 8.3 | 12.1 | 9.7 | 20.3
O=C(CCS)N1CCC(Oc2cncc(Cl)c2)CC1 |  | 17.1 | 33.7 | 37.6 | 29 | 45.1 | 32.3 |  | 16.9 | 34.6 | 32.1 | 52.1
O=C(CCN1C(=O)CCc2cc(F)ccc21)NCCS | 49.1 | 16 | 30.5 | 24 | 35.7 | 38.1 | 38.7 | 24.6 | 21.6 | 33.8 | 29.1 | 48.5
Cc1ccc(OCc2cccc(C(=O)NCCS)c2)cn1 | 30.7 | 12.1 | 22.7 | 15 | 20.3 | 19.1 | 35.8 | 42 | 13.3 | 14.5 | 13.2 | 22.7
Cn1cc(N2CCCC(N3CCN(C(=O)CCS)CC3)C2=O)cn1 (stereo not drawn) |  | 13.4 | 22.8 | 30.3 | 26 | 38.3 | 17.5 |  | 22.6 | 25.1 | 38 | 50.1
CN1CCC(c2cccc(NC(=O)CCS)c2)CC1 |  | 19.1 | 51.1 | 46.6 | 35.4 | 50.7 | 49.9 |  | 24.4 | 31.1 | 33.2 | 56.4
CC(C(=O)N(C)CC(=O)NCCS)n1cccn1 (stereo not drawn) | 19.9 | 8.3 | 25.3 | 18.1 | 35.5 | 26.4 | 9.2 | 28.2 | 23.9 | 29.3 | 29.2 | 37
CCNC(=O)c1cccc(NC(=O)CCS)c1 |  | 16.3 | 30 | 38.3 | 32.7 | 23.8 | 30.2 |  | 33 | 31.5 | 37.2 | 48.6
O=C(NCCS)C1(O)CCC(C(F)(F)F)CC1 (stereo not drawn) | 41 | 19.2 | 36.5 | 23.7 | 41.6 | 30.8 | 39.2 | 37.3 | 36.6 | 32.8 | 35.2 | 45
O=C(CCS)Nc1ccc2c(c1)CCC(=O)N2 |  | 13.4 | 31 | 41.5 | 30.6 | 26.9 | 40.2 |  | 24.9 | 21.9 | 26 | 41.6
O=C(CCS)Nc1cccc(Oc2ccccc2)c1 |  | 13.6 | 14.6 | 14.3 | 18.6 | 23.5 | 33.3 |  | 9.6 | 16.7 | 10.8 | 34.7
O=C(CCS)NCCCC(=O)Nc1cn[nH]c1 |  | 12.6 | 28.8 | 45 | 35.5 | 32.3 | 15.5 |  | 30.4 | 32.2 | 37.9 | 51.1
CC(C)(C(=O)NCCS)c1ccc(C(F)(F)F)cc1 | 29.6 | 11.9 | 23.8 | 8.9 | 22.7 | 14.2 | 16.3 | 25.4 | 11.9 | 17.7 | 15.5 | 20.3
O=C(CCS)Nc1ccc(F)cc1Cn1ccsc1=O |  | 19.3 | 47.9 | 41.4 | 36.7 | 36.2 | 39.5 |  | 30.7 | 33.9 | 30 | 57.4
Cc1nn(-c2ccccc2)c(C)c1C(=O)NCCS | 36.5 | 13.1 | 27 | 23 | 24.6 | 28 | 33.4 | 42.7 | 22.9 | 56.1 | 24.2 | 37.6
O=C(Nc1sccc1C(=O)NCCS)c1ccc2c(c1)CCC2 | 29.9 | 11.5 | 15.1 | 16.7 | 11.9 | 7.1 | 41.4 | 16.4 | 3.4 | 9 | 2.5 | 12.7
O=C(CCS)NC1(c2ccc(Br)cc2)COC1 |  | 18 | 16.1 | 33.5 | 37.5 | 6.8 | 43.9 |  | 27.2 | 35.2 | 31.6 | 55.4
COc1cccc(-c2cc(CN(C)C(=O)CCS)[nH]n2)c1 |  | 18.8 | 28.5 | 30.5 | 27.1 | 35.6 | 46.2 |  | 19.9 | 38.2 | 17.4 | 36.6
O=C(NCCS)c1ccc2c(c1)[nH]c(=O)n2CC(F)(F)F | 40.1 | 26.3 | 35.4 | 30.8 | 34.4 | 26.9 | 61.7 | 50.3 | 21.2 | 26.8 | 16.4 | 42.9
Cc1nc(-c2cccnc2)[nH]c(=O)c1CC(=O)NCCS | 36.2 | 19.3 | 30.9 | 26.1 | 46.6 | 28.4 | 19.7 | 38 | 28.2 | 32.2 | 38.5 | 37.4
O=C(CCS)Nc1ccc2c(c1)C(=O)NCC2 |  | 17.3 | 32.8 | 43.5 | 31.1 | 28.8 | 42.2 |  | 39.2 | 27.7 | 33.8 | 54.7
Cc1nc2cc(=O)[nH]n2c(C)c1CNC(=O)CCS |  | 4.1 | 23 | 24 | 28.2 | 28.4 | 9.1 |  | 9.6 | 33.5 | 36 | 36.7
O=C(CCS)NC1CCC(O)(C(F)(F)F)CC1 (stereo not drawn) |  | 9.9 | 30.7 | 33.9 | 31.7 | 36.4 | 21.7 |  | 26.5 | 40.3 | 41.1 | 49.1
O=C(CC1(C(=O)NCCS)CCCC1)N1CCOCC1 | 24.1 | 7.6 | 26.6 | 17.5 | 34.4 | 23.6 | 10.3 | 32.3 | 24.6 | 24.6 | 26.4 | 31.2
O=C(NCCS)c1csc(-c2cnccn2)n1 | 39.1 | 24.9 | 34.1 | 23.4 | 35.8 | 26.1 | 53 | 47.2 | 21.7 | 25.4 | 23.4 | 44.7
O=C(CCS)Nc1ccccc1Oc1ncc(Cl)cc1Cl |  | 7.7 | 18 | 20.3 | 12.5 | 19.4 | 27.9 |  | 11.7 | 14.5 | 7.1 | 21.5
O=C(NC1(C(=O)NCCS)CCCC1)c1ccc2[nH]ncc2c1 | 42.1 | 18.3 | 35.8 | 28 | 42.5 | 41.1 | 27.8 | 39.1 | 27.8 | 27.1 | 27.1 | 35.6
